Source: article PMC7819943, “Rice protein-binding microarrays: a tool to detect cis-acting elements near promoter regions in rice”
The other results are listed elsewhere or left out.

These sequences were tested against T1, OsWOX13 (Oryza sativa, UniProt Q5QMM3 1-267) (assay: protein-binding microarray (RPBM); PBS, 2% BSA, 51.3 ng/ul salmon testes DNA, 50 uM zinc acetate, 200 nM TF, 25 C, 1 h; high values mean tight binding). Conditions: protein: recombinant; tags: N-terminal polyhistidine and DsRed monomer fusion (pET32a); label: CyDye5-dUTP incorporated in the synthesized complementary strand; 3' TTTTT single-stranded linker to array surface; dsDNA, one strand shown.
T1 sequence: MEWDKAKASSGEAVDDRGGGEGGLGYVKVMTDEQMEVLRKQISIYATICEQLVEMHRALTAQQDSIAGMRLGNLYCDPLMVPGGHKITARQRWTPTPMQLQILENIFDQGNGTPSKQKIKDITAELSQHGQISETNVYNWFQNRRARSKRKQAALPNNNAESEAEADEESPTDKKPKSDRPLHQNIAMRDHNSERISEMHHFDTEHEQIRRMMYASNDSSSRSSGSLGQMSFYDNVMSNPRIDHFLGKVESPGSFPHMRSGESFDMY
Summary of the method: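 Transcription factors were made in E. coli BL21-CodonPlus as N-terminal fusions to a polyhistidine tag and DsRed, then purified on Ni–NTA. After primer extension with Cy5-dUTP and blocking with 2% BSA, a custom Agilent array was exposed for 1 h at 25 °C to 200 nM protein in PBS, 2% BSA, salmon testes DNA and 50 µM zinc acetate. Washed arrays were scanned on an Axon 4000B, and the binding signal is per-feature fluorescence intensity in arbitrary units.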

Sequence	binding signal
TTTCATTCTAACATGTTAATTTCTAAGCCTTAATTAACATCGGAGTCACCTAGTGCAG	6780 fluorescence intensity (a.u.)
GAAATTAATGTCATGAATTCTCTTCTTCCATGCATGCTGACGGAGTCACCTAGTGCAG	5330 fluorescence intensity (a.u.)
ACTTTTGTCAACGGTGGTAATTATTACAGTGTTTTACTCCCGGAGTCACCTAGTGCAG	11100 fluorescence intensity (a.u.)
GATGATTTTGTAATTCGATGACAAGTTGAGGGACCTCGGGCGGAGTCACCTAGTGCAG	23200 fluorescence intensity (a.u.)
CCTGACAGGCACACGAACCGGACGAGCACTCACCAACCCGCGGAGTCACCTAGTGCAG	19300 fluorescence intensity (a.u.)
GAAAGCTCTGATTATCTCCATCTACGGTTCTGCTTCAAGCCGGAGTCACCTAGTGCAG	4050 fluorescence intensity (a.u.)
GCACTTTAATTAATCTGGGGACTTCGTTGCTAGCGAGTATCGGAGTCACCTAGTGCAG	11800 fluorescence intensity (a.u.)
CCTTTAATTGTTTTCTGAATTTCATACTATAAGGCATATTCGGAGTCACCTAGTGCAG	17600 fluorescence intensity (a.u.)
ATTGACTAATTTCGAATGTTGGAATTATTTAATGGTCAGGCGGAGTCACCTAGTGCAG	25900 fluorescence intensity (a.u.)
ACAAAAGCAATCAATAATATTTGCCGAACCCTATCGTCCACGGAGTCACCTAGTGCAG	5640 fluorescence intensity (a.u.)
AATTTAGTAAATTTCATGGCAAATTGCTACTATCCGAGACCGGAGTCACCTAGTGCAG	4300 fluorescence intensity (a.u.)
AATAACGCAATTAATTACGCAAGGTATATATACATACCGCCGGAGTCACCTAGTGCAG	28500 fluorescence intensity (a.u.)
ATCTTTCTATACCTATACTAATTAGTCACTTATTCTCAGGCGGAGTCACCTAGTGCAG	5570 fluorescence intensity (a.u.)
CTAGATTTGGATCATAATCAGGGCACAGCCGCCTTGGGTCCGGAGTCACCTAGTGCAG	22900 fluorescence intensity (a.u.)
GTTTTGATTGAAGTTATTGAAATAATTTGTGTTGAAAAGACGGAGTCACCTAGTGCAG	34600 fluorescence intensity (a.u.)
TCGATGACTCAATCATAAGGGATGATAAATAGACTTATTTCGGAGTCACCTAGTGCAG	10900 fluorescence intensity (a.u.)
TAAATTAATTAATTAATTAATGCGCTCTTTACCTAACTTTCGGAGTCACCTAGTGCAG	46700 fluorescence intensity (a.u.)
ATTAATTTGCCGGGAAAAGACACCTGAACGAACTGTGGGGCGGAGTCACCTAGTGCAG	17000 fluorescence intensity (a.u.)
CCCGGTAATGATAGCGTCTGGTTTTAACAAGTCACCGCCGCGGAGTCACCTAGTGCAG	3960 fluorescence intensity (a.u.)
TTTTCTTTAAATTTGGTCAAATTTAACAAAGTTTAACTAGCGGAGTCACCTAGTGCAG	8190 fluorescence intensity (a.u.)
GTGTTAGATTTTAAATGGATATTTTGGAACACTAGCCCGTCGGAGTCACCTAGTGCAG	5550 fluorescence intensity (a.u.)

Sequence	binding signal
TTTGACATCATTTTGTATTATAAATCAAATCAAATTTGAACGGAGTCACCTAGTGCAG	10900 fluorescence intensity (a.u.)
GGTGTCTTGATTGATATGATTTAAATTATTCTTGGTCTTGCGGAGTCACCTAGTGCAG	58500 fluorescence intensity (a.u.)
AAGAAATTATAAATTAAAGATTAGTTTTGAAGACCGTGCCCGGAGTCACCTAGTGCAG	22400 fluorescence intensity (a.u.)
CTGAATGATTTGCATACTTCAACTGAAAGGGGCTCAGTCACGGAGTCACCTAGTGCAG	23100 fluorescence intensity (a.u.)
TGTATTGCCTAATTAATTTTATGCGCCTTTAATTTACTGCCGGAGTCACCTAGTGCAG	16800 fluorescence intensity (a.u.)
ATACAACGATGTGATTAGATCGTAGATTTGATAAGTGGAGCGGAGTCACCTAGTGCAG	16200 fluorescence intensity (a.u.)
ATTGAATTCACAAACATTTTAATTGTTTGGTTAAGTGCATCGGAGTCACCTAGTGCAG	3520 fluorescence intensity (a.u.)
CCGTACATAGGATGATTAGAGCAGGTACAATAGTAGCCTACGGAGTCACCTAGTGCAG	3460 fluorescence intensity (a.u.)
ACATAACTTAAAACAATCACGTTCTGAAACAAAATTTATTCGGAGTCACCTAGTGCAG	4010 fluorescence intensity (a.u.)
GTGCCCTTCAATTTTATTTGATGAAATATCAAAACTCCCTCGGAGTCACCTAGTGCAG	3830 fluorescence intensity (a.u.)
ATATAATGGAATGGACTTCCATTGTCGAGGAAGTTACCACCGGAGTCACCTAGTGCAG	5080 fluorescence intensity (a.u.)
ATAAATTTGTCACGTGCATAAGAAATTTCACGATCCAACACGGAGTCACCTAGTGCAG	4090 fluorescence intensity (a.u.)
TCCTTAAACAAATCATGTGTTCTTTAATGCTTGGCAGAGTCGGAGTCACCTAGTGCAG	3310 fluorescence intensity (a.u.)
TTTAGCATGATTTCTTATGTATTTACTAAATTTGGCAACACGGAGTCACCTAGTGCAG	4100 fluorescence intensity (a.u.)
AAGTTGTATAATTATATTTATAGCACTACATTTCAATAAGCGGAGTCACCTAGTGCAG	5420 fluorescence intensity (a.u.)
ATTAAGATTGATTAATTGTTGCTTGGTTAATAGCCACTTACGGAGTCACCTAGTGCAG	47500 fluorescence intensity (a.u.)
ATCCAATTAACCCCTAAAATAAAATGGGAGAGGATTCTAACGGAGTCACCTAGTGCAG	6150 fluorescence intensity (a.u.)
ATCACCGGTATAATTATACAGTATACATGGACAAGTAACGCGGAGTCACCTAGTGCAG	3940 fluorescence intensity (a.u.)
TTGAGCACTAATTAATCATTAGGTGGCCTAATCAACAGCTCGGAGTCACCTAGTGCAG	22000 fluorescence intensity (a.u.)
CTGATTAATTGCCAGTAATTTGATTTCAACCTTACGTGTACGGAGTCACCTAGTGCAG	53000 fluorescence intensity (a.u.)
GCATTCAATTTATGGTCAATTCTATCCATCTATGACTTTACGGAGTCACCTAGTGCAG	7170 fluorescence intensity (a.u.)
